# Experimental data reported in the supplement of paper PMC8728848.
# The other results are listed elsewhere or left out.
# Legend:
# Experiment in all cases: glycan array binding signal (z-score within array); higher = stronger binding
# Conditions in all cases: glycan notation: IUPAC condensed, linker removed
# [1] = target: Gal(a1-3)Gal(b1-3)GlcNAc(b1-2)Man
# Method in brief: (§1)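 Arrays were curated from the Consortium for Functional Glycomics database, 3228 in total, and kept only where the protein sequence was available. Binding is expressed as a within-array Z-score. This score was averaged across arrays of the same protein sequence at different concentrations or buffers and across linkers, and negative values can be read as non-binding.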
# [2] = target: Gal(a1-3)Gal(b1-3)GlcNAc(b1-2)Man(a1-3)[Gal(a1-3)Gal(b1-3)GlcNAc(b1-2)Man(a1-6)]Man(b1-4)GlcNAc(b1-4)GlcNAc
# Method in brief: as §1
# [3] = target: Gal(a1-3)Gal(b1-3)GlcNAc(b1-3)GalNAc
# Method in brief: as §1
# [4] = target: Gal(a1-3)Gal(b1-3)GlcNAc(b1-6)GalNAc
# Method in brief: as §1
# [5] = target: Gal(a1-3)Gal(b1-3)[Fuc(a1-4)]GlcNAc(b1-2)Man(a1-3)[Gal(a1-3)Gal(b1-3)[Fuc(a1-4)]GlcNAc(b1-2)Man(a1-6)]Man(b1-4)GlcNAc(b1-4)GlcNAc
# Method in brief: as §1
# Gal(a1-3)Gal(b1-4)Glc = target: Gal(a1-3)Gal(b1-4)Glc
# Method in brief: as §1
# Gal(a1-3)Gal(b1-4)GlcNAc = target: Gal(a1-3)Gal(b1-4)GlcNAc
# Method in brief: as §1
# [6] = target: Gal(a1-3)Gal(b1-4)GlcNAc(b1-2)Man
# Method in brief: as §1
# [7] = target: Gal(a1-3)Gal(b1-4)GlcNAc(b1-2)Man(a1-3)[Gal(a1-3)Gal(b1-4)GlcNAc(b1-2)Man(a1-6)]Man(b1-4)GlcNAc(b1-4)GlcNAc
# Method in brief: as §1
# [8] = target: Gal(a1-3)Gal(b1-4)GlcNAc(b1-3)GalNAc
# Method in brief: as §1
# [9] = target: Gal(a1-3)Gal(b1-4)GlcNAc(b1-6)GalNAc
# Method in brief: as §1
# [10] = target: Gal(a1-3)Gal(b1-4)[Fuc(a1-3)]GlcNAc
# Method in brief: as §1
# [11] = target: Gal(a1-3)Gal(b1-4)[Fuc(a1-3)]GlcNAc(b1-2)Man(a1-3)[Gal(a1-3)Gal(b1-4)[Fuc(a1-3)]GlcNAc(b1-2)Man(a1-6)]Man(b1-4)GlcNAc(b1-4)GlcNAc
# Method in brief: as §1
# Gal(a1-3)GalNAc = target: Gal(a1-3)GalNAc
# Method in brief: as §1
# [12] = target: Gal(a1-3)[Gal(a1-4)]Gal(b1-4)GlcNAc
# Method in brief: as §1
# [13] = target: Gal(a1-4)Gal(b1-3)GlcNAc(b1-2)Man(a1-3)[Gal(a1-4)Gal(b1-3)GlcNAc(b1-2)Man(a1-6)]Man(b1-4)GlcNAc(b1-4)GlcNAc
# Method in brief: as §1
# Gal(a1-4)Gal(b1-4)Glc = target: Gal(a1-4)Gal(b1-4)Glc
# Method in brief: as §1
# Gal(a1-4)Gal(b1-4)GlcNAc = target: Gal(a1-4)Gal(b1-4)GlcNAc
# Method in brief: as §1
# [14] = target: Gal(a1-4)Gal(b1-4)GlcNAc(b1-2)Man(a1-3)[Gal(a1-4)Gal(b1-4)GlcNAc(b1-2)Man(a1-6)]Man(b1-4)GlcNAc(b1-4)GlcNAc
# Method in brief: as §1
# [15] = target: Gal(a1-4)Gal(b1-4)GlcNAc(b1-3)Gal(b1-4)Glc
# Method in brief: as §1
# Gal(a1-4)GlcNAc = target: Gal(a1-4)GlcNAc
# Method in brief: as §1
# Gal(a1-6)Glc = target: Gal(a1-6)Glc
# Method in brief: as §1
# Gal(b1-2)Gal = target: Gal(b1-2)Gal
# Method in brief: as §1
# Gal(b1-3)Gal = target: Gal(b1-3)Gal
# Method in brief: as §1
# Gal(b1-3)Gal(b1-4)GlcNAc = target: Gal(b1-3)Gal(b1-4)GlcNAc
# Method in brief: as §1
# Gal(b1-3)GalNAc = target: Gal(b1-3)GalNAc
# Method in brief: as §1
# [16] = target: Gal(b1-3)GalNAc(a1-3)[Fuc(a1-2)]Gal(b1-4)Glc
# Method in brief: as §1
# [17] = target: Gal(b1-3)GalNAc(a1-3)[Fuc(a1-2)]Gal(b1-4)GlcNAc
# Method in brief: as §1
# Gal(b1-3)GalNAc(b1-3)Gal = target: Gal(b1-3)GalNAc(b1-3)Gal
# Method in brief: as §1
# [18] = target: Gal(b1-3)GalNAc(b1-3)Gal(a1-4)Gal(b1-4)Glc
# Method in brief: as §1
# [19] = target: Gal(b1-3)GalNAc(b1-4)Gal(b1-4)Glc
# Method in brief: as §1
# [20] = target: Gal(b1-3)GalNAc(b1-4)[Neu5Ac(a2-3)]Gal(b1-4)Glc
# Method in brief: as §1
# Gal(b1-3)GlcNAc = target: Gal(b1-3)GlcNAc
# Method in brief: as §1
# [21] = target: Gal(b1-3)GlcNAc(a1-3)Gal(b1-4)GlcNAc
# Method in brief: as §1
# [22] = target: Gal(b1-3)GlcNAc(a1-6)Gal(b1-4)GlcNAc
# Method in brief: as §1
# Gal(b1-3)GlcNAc(b1-2)Man = target: Gal(b1-3)GlcNAc(b1-2)Man
# Method in brief: as §1
# [23] = target: Gal(b1-3)GlcNAc(b1-2)Man(a1-3)[Gal(b1-3)GlcNAc(b1-2)Man(a1-6)]Man(b1-4)GlcNAc(b1-4)GlcNAc
# Method in brief: as §1
# [24] = target: Gal(b1-3)GlcNAc(b1-2)Man(a1-3)[Gal(b1-3)GlcNAc(b1-2)Man(a1-6)]Man(b1-4)GlcNAc(b1-4)[Fuc(a1-6)]GlcNAc
# Method in brief: as §1
binder,measurement,setting,value
CaSRK1 (Capsicum annuum) (protein) MALCKIFPFAFILLSCSCYLISGQRFDYPTANLSTTWINSVSAPHSIDYTDGSRIRAILLRGTFGPRYACGFYCNGNCESYLFAIFIVQTNSASQITSPAIGFPQVVWSANRNNPVKINSTLQLTAEGDLVLRDADGTLAWSTNTAGKSVAGLSLTDEGNLALFDSKNATVWQSFDHPTDALVPGQKLVPGMKLTASVSRTNWTAGGLFALSAIDNGLVAFVESNPPQKYFEASVGGSNTSGGSNYVKYLNGSLTLFTHSADTTELILISITPASSAQYMKLESNGHLKVYEWTSRGWREVDDLLTGFRGECNYPTVCGRYGICTMGQCSCPTSSSSRTYFRPIDVRRPSLGCSEVTKLTCQNTKKHSPLEVEDVDYFAFKAGISDTDLNTCKRACLEKCSCKAAFFRSGLNSSRTRGDCYLPTEIFSIMNNEKDRTRYDSVAFIKVQV,glycan array binding signal (z-score),[1],-0.499
same,glycan array binding signal (z-score),[2],-0.213
same,glycan array binding signal (z-score),[3],-0.147
same,glycan array binding signal (z-score),[4],-0.504
same,glycan array binding signal (z-score),[5],-0.357
same,glycan array binding signal (z-score),Gal(a1-3)Gal(b1-4)Glc,-0.473
same,glycan array binding signal (z-score),Gal(a1-3)Gal(b1-4)GlcNAc,-0.454
same,glycan array binding signal (z-score),[6],-0.278
same,glycan array binding signal (z-score),[7],-0.375
same,glycan array binding signal (z-score),[8],-0.081
same,glycan array binding signal (z-score),[9],-0.482
same,glycan array binding signal (z-score),[10],-0.295
same,glycan array binding signal (z-score),[11],1.04
same,glycan array binding signal (z-score),Gal(a1-3)GalNAc,-0.479
same,glycan array binding signal (z-score),[12],-0.496
same,glycan array binding signal (z-score),[13],0.412
same,glycan array binding signal (z-score),Gal(a1-4)Gal(b1-4)Glc,-0.139
same,glycan array binding signal (z-score),Gal(a1-4)Gal(b1-4)GlcNAc,-0.24
same,glycan array binding signal (z-score),[14],0.156
same,glycan array binding signal (z-score),[15],-0.419
same,glycan array binding signal (z-score),Gal(a1-4)GlcNAc,-0.197
same,glycan array binding signal (z-score),Gal(a1-6)Glc,0.287
same,glycan array binding signal (z-score),Gal(b1-2)Gal,1.16
same,glycan array binding signal (z-score),Gal(b1-3)Gal,-0.173
same,glycan array binding signal (z-score),Gal(b1-3)Gal(b1-4)GlcNAc,-0.531
same,glycan array binding signal (z-score),Gal(b1-3)GalNAc,-0.395
same,glycan array binding signal (z-score),[16],0.178
same,glycan array binding signal (z-score),[17],-0.146
same,glycan array binding signal (z-score),Gal(b1-3)GalNAc(b1-3)Gal,-0.283
same,glycan array binding signal (z-score),[18],-0.249
same,glycan array binding signal (z-score),[19],-0.444
same,glycan array binding signal (z-score),[20],0.04
same,glycan array binding signal (z-score),Gal(b1-3)GlcNAc,-0.317
same,glycan array binding signal (z-score),[21],-0.591
same,glycan array binding signal (z-score),[22],-0.301
same,glycan array binding signal (z-score),Gal(b1-3)GlcNAc(b1-2)Man,5.29
same,glycan array binding signal (z-score),[23],-0.553
same,glycan array binding signal (z-score),[24],-0.356
